Data reported in the RNAGym collection of RNA variant scans (doi:10.1073/pnas.2313332121).
Variants at the floor of the assay are shown more often than the library holds them.

B1: TPR 5TU (parent)
chain: GGAUCUUCUCGAUCUAACAAAAAAGACAAAUCUGCCACAAAGCUUGAGAGCAUCUUCGGAUGCAGAGGCGGCAGCCUUCGGUGGCGCGAUAGCGCCAACGUUCUCAACUAUGACACGCAAAACGCGUGCUCCGUUGAAUGGAGUUUAUCAUG

Variants of: B1
Assay: polymerase ribozyme fitness, log enrichment relative to wild type (log ratio); higher = more active; in vitro selection for triplet polymerase activity
Procedure, shortened: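 PCR was used to build mutant libraries for each subunit of a heterodimeric triplet polymerase ribozyme, which were then transcribed. A single in vitro selection round, in triplicate, used a frozen incubation at −7 °C and recovered extended constructs by gel excision, streptavidin beads and RT-PCR. Fitness is the logarithm of genotype enrichment relative to wild-type enrichment, averaged over replicates with inverse-variance weights. The logarithm is base 2, and after Illumina sequencing only genotypes with ≥10 input reads and ≥1 read per output were kept.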

Row | Variant | polymerase ribozyme fitness (log ratio)
1 | A22U A64G A66U | ≤ -4.2
2 | A22U A66C A73C C87U A98U C103A C149G | ≤ -4.2
3 | A22U A66C C79G G80A G84U C85A G124A | ≤ -4.2
4 | A22U A89U | 0.229
5 | A22U A91C | ≤ -4.2
6 | A22U A97G | 0.0508
7 | A22U A115C | -0.374
8 | A22U C27A A49G C63A C69G G74A C116G C131U A138C | ≤ -4.2
9 | A22U C27G G42A C87U U130G | ≤ -4.2
10 | A22U C27G G50C G58C A97G C103G A110U U139A | ≤ -4.2
11 | A22U C27G U45A G58C G62A A64C G133A U134A A147C | ≤ -4.2
12 | A22U C32A G42A G48A A52G U148A | ≤ -4.2
13 | A22U C32A G48U G71U C87G G88C U148G | ≤ -4.2
14 | A22U C32A G59U G71A U82C C95U C96G U148C | ≤ -4.2
15 | A22U C32G A41U G68U U90C G94U C105G | ≤ -4.2
16 | A22U C32U U53A G80C | ≤ -4.2
17 | A22U C35A C87A A122U | ≤ -4.2
18 | A22U C35A U55A U56G G74A C85G | ≤ -4.2
19 | A22U C35A U55C C79G C85A A91U | ≤ -4.2
20 | A22U C35G G42A C69A C93G A106U C131G | ≤ -4.2
21 | A22U C35G G94C U101C A115C | ≤ -4.2

Row | Variant | polymerase ribozyme fitness (log ratio)
22 | A22U C35U A41C U53C U148G | ≤ -4.2
23 | A22U C36A G68A U82G G83U A106U | ≤ -4.2
24 | A22U C36A G83A U145A | ≤ -4.2
25 | A22U C36G C105G | ≤ -4.2
26 | A22U C38A U61A A64G G70C A119G G128U | ≤ -4.2
27 | A22U C38U C51U U53A C54A C85G | ≤ -4.2
28 | A22U C38U C87G G100A C116A C125U A150C | ≤ -4.2
29 | A22U C43U A47C A91C C108U A115U A121C | ≤ -4.2
30 | A22U C43U A66G G68A G83A G84U | ≤ -4.2
31 | A22U C51A G86A C131U U134A | ≤ -4.2
32 | A22U C51U A137G A147C | -2.48
33 | A22U C54U A60C C85G G143C | ≤ -4.2
34 | A22U C54U G92U A147U | 0.944
35 | A22U C54U U56C A73G G94U U127A G140U | ≤ -4.2
36 | A22U C57A | -0.719
37 | A22U C57A A138C U145C | ≤ -4.2
38 | A22U C57A C85G C87U C99A C114A G140C | ≤ -4.2
39 | A22U C57A G80A G94U C99U C116G G143U A147U | ≤ -4.2
40 | A22U C57G U90A A91U G92A | ≤ -4.2
41 | A22U C57U G70A G81C G83C G100C A106C G133C | ≤ -4.2
42 | A22U C63U | 0.542

Row | Variant | polymerase ribozyme fitness (log ratio)
43 | A22U C72G G92A A150U | ≤ -4.2
44 | A22U C75G C93G | ≤ -4.2
45 | A22U C79G C87U | ≤ -4.2
46 | A22U C79G U102G A110U | ≤ -4.2
47 | A22U C85A | -0.394
48 | A22U C85G U102G G140C | ≤ -4.2
49 | A22U C85U | -0.371
50 | A22U C87A | -4.14
51 | A22U C87A A89U C103G A106C | ≤ -4.2
52 | A22U C93U A119G G140A U146C | ≤ -4.2
53 | A22U C95U C103G | -1.55
54 | A22U C96A | -0.026
55 | A22U C96U | 0.237
56 | A22U C96U C118U | -0.15
57 | A22U C108U | -2.85
58 | A22U C123G | -0.0344
59 | A22U C125U | -0.442
60 | A22U C149U | 0.0648
61 | A22U G25A G94C C96U G126A A137C | ≤ -4.2
62 | A22U G25U C32U G48C C96A C132G | ≤ -4.2
63 | A22U G34A U77A C95U G124A C149A | ≤ -4.2

Row | Variant | polymerase ribozyme fitness (log ratio)
64 | A22U G42A U55A G86A A89G G94C | ≤ -4.2
65 | A22U G42C A47U A60C G81A G88C A97C U134G U144A U145C | ≤ -4.2
66 | A22U G46A C79G G80U G92A A150C | ≤ -4.2
67 | A22U G48U A49U G74C C76A G100A G133U | ≤ -4.2
68 | A22U G50C | -2.99
69 | A22U G50C C76U G81A U135C A138G | ≤ -4.2
70 | A22U G50U C54U A66C A91G G92U A138G | ≤ -4.2
71 | A22U G50U C72A A91U C114A | ≤ -4.2
72 | A22U G50U C87U C108U C149U G152U | ≤ -4.2
73 | A22U G50U C96A G136C A142G | ≤ -4.2
74 | A22U G50U C96G | 0.467
75 | A22U G50U C96G U145G | -0.544
76 | A22U G50U G68C C95A U139C | ≤ -4.2
77 | A22U G50U U55A G81C C93U A122U A150C | ≤ -4.2
78 | A22U G58C A66U C76U G86A A113G | ≤ -4.2
79 | A22U G58C C93U A107C A120U G126A | ≤ -4.2
80 | A22U G59U C103G A110U C118U | ≤ -4.2
81 | A22U G74C C118U | ≤ -4.2
82 | A22U G80A C87U U104G G126C | ≤ -4.2
83 | A22U G84A U90G A91G A119U G143A | ≤ -4.2
